Patent publication US20170355953A1 (OSAKA UNIVERSITY, published 2017)

Biological target: T1, bovine afamin (from fetal calf serum in the culture medium) (bovine, UniProt G3MYZ3 22-604)
T1 construct: mature; Native glycoprotein from fetal calf serum; also called protein X; 65-kDa protein
T1 sequence (looked up): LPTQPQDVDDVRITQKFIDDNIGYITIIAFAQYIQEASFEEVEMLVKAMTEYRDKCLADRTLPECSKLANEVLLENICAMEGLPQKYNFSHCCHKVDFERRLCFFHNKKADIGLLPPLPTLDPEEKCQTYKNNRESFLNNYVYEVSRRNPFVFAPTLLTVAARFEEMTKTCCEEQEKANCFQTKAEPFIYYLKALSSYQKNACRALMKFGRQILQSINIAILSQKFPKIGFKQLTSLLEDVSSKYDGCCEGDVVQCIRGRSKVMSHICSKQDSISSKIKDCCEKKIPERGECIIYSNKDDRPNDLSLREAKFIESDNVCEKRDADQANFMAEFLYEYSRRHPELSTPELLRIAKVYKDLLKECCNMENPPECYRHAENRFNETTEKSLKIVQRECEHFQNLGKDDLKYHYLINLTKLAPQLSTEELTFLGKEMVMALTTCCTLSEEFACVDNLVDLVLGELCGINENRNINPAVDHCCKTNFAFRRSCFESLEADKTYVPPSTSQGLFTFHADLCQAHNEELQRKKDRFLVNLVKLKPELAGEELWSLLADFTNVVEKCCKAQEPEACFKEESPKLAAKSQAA
Test: co-immunoprecipitation on B91-sepharose from W-Wnt3a/HEK culture supernatant, western blotting with an anti-Wnt3a antibody
Experimental: The Wnt3a expressing cells (L-3a and W-Wnt3a/HEK) were cultured for 3 days, and the supernatants were harvested. To 1 mL of each supernatant, 20 μL of a sepharose with an anti-bovine afamin monoclonal antibody (clone number B91, hereinafter called “B91”) immobilized thereto was added, and the mixture was rotated end over end for 3 hours. The sepharose was precipitated by centrifugation, and the supernatant was removed. After the sepharose was washed 3 times with 1 mL of TBS, 30 μL of SDS sample buffer was added, and elution was performed under heating at 95° C. for 2 minutes. Eight microliters of the eluate was subjected to electrophoresis under reducing conditions, and separated proteins were stained with ORIOLE. In a separate experiment, 4 μL of the eluate was subjected to electrophoresis, and western blotting using an anti-Wnt3a antibody was performed (see Example 1).

binding result: binds
B1: mouse Wnt3a fused with an affinity tag (W-Wnt3a) (ligand)
chain: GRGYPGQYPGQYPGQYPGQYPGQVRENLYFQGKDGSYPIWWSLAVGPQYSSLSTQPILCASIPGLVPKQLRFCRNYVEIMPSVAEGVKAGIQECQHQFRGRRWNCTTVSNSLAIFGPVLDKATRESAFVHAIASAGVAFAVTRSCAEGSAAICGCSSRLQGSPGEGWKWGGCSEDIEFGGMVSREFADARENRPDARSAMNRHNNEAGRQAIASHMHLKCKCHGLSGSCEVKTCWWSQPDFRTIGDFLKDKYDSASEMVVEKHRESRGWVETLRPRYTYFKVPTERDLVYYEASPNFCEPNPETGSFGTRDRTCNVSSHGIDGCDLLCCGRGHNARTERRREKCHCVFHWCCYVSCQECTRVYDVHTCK
notes: Secreted from HEK293S GnT1- cells (W-Wnt3a/HEK); The chain is built here from the named pieces; also called N-terminally tagged Wnt3a; 37-kDa Wnt3a
